Experimental data: ChEMBL document CHEMBL4888484, “Replenishing the malaria drug discovery pipeline: Screening and hit evaluation of the MMV Hit Generation Library 1 (HGL1) against asexual blood stage Plasmodium falciparum ,using a nano luciferase reporter read-out” (2022)
Where “and” joins values, the source holds several entries; their conditions need not be identical. Equal entries are not always repeated. About 540 (0.36%) of roughly 150,000 compounds showed an effect of 50% or more. The list shows a part of the results.

Tested on: Plasmodium falciparum
Assay: Primary screen in NF54 nanoGlo assay, in single point, at 2uM, 72h; a lower Z score goes with more inhibition
Format: functional, Erythrocyte
Details: timepoint 72 hour

Compound	% Inhibition [%]	Z score	% Inhibition (2 µM)
Cn1nccc1[C@@H]1CN(C(=O)Nc2nsc3ccccc23)CCO1	-5	0.53	
CCc1nc(C)c(C(=O)NC[C@H](C)c2nc(C)cs2)o1	-9	1.35	
Cc1ccc(C2CN(C(=O)c3ccc(F)cc3)CC2CN(C)C2CCCCC2)cc1 (configuration not stated)	-13	2.06	
CC(C)c1ccc(CN2CCCN(c3ccc(NC(=O)c4ccccc4Cl)cn3)CC2)cc1	-5	0.47	
C[C@@H](CCc1cccc(F)c1)C(=O)Nc1nc(=O)c2cnn(C)c2[nH]1	-6	0.8	
CCCn1nc(C(=O)N(CC)CC(=O)Nc2ccc3c(c2)OCCO3)ccc1=O	-11	1.25	
Cc1ccc(CC(=O)N2C[C@@H](N)[C@H](c3ccnn3C)C2)cc1	-2	0.42	
O=C(c1ccc(F)cc1)N1CC[C@H](OCc2ccccc2)C1	-18	2.05	
O=C(Nc1ncc(Cc2cc(C(F)(F)F)cc(C(F)(F)F)c2)s1)c1ccoc1	-11	1.03	
CC(C)(C(=O)NCc1cccnc1-n1ccnc1)C1CCCC1	6	-0.96	
CC1(C)CN([C@@H](CNc2ccc(C(=O)O)nn2)c2ccc(Cl)cc2)CCO1	-16	2.33	
CCOC1CC(O)(CNC(=O)c2cc(F)ccc2C)C1 (configuration not stated)	13	-1.66	
COc1ccc(C2=NN(C(=O)CN3CCOCC3)[C@H](c3ccc(C)cc3C)C2)cc1	-5	0.66	
Cc1oc(-c2ccno2)cc1S(=O)(=O)N1CCC[C@H]1c1nc(C(C)C)no1	-3	0.48	
CC1CCCN(C(=O)CC2NC(=O)N(c3ccc(F)cc3)C2=O)C1 (configuration not stated)	-9	0.82	
CCOc1ccccc1OCc1ncnn1C	4	-0.56	
CCn1nc(C)nc1NC(=O)CCc1ccncc1	19	-2.47	
CC1CC(C)CN(C(=O)c2ccc3c(c2)ncn3C2CCCC2)C1 (configuration not stated)	-17	2.76	
Cc1ccc(NS(=O)(=O)c2ccc(NC(=O)CN(c3ccc(F)cc3)S(C)(=O)=O)cc2)cc1C	4	-0.67	
O=C(CCc1cc2n(n1)CCN(C(=O)[C@@H]1Cc3ccccc3O1)C2)NC1CC1	-9	1.15	
C[C@H](NC(=O)C(C)(C)C)c1ccccc1	0	0	

Compound	% Inhibition [%]	Z score	% Inhibition (2 µM)
COC1(c2ccccc2)CCN(c2ccc3cc[nH]c3n2)CC1	-5	1.08	
COc1nc(NCC2(N(C)C)CCCC2)ncc1F	-5	1.05	
Cc1cnc(CCNC(=O)NCC(C)C)n1C(C)C	-8	1.42	
CN(C[C@H]1CCCO1)C(=O)c1csnn1	13	-1.53	
COc1ccc(Cc2nc(-c3ccc4nncn4c3)no2)c(Cl)c1	-9	1.53	
CC(=O)c1ccc(NC(=O)N2CCC(n3cc(-c4cccnc4)nn3)CC2)cc1	15	-2.05	
O=C(Nc1cccc(Br)c1)c1cc2n(n1)CCCO2	-24	3.8	
CCN(C(C)=O)c1nc(CN2C(=O)N[C@](C)(c3ccc(F)cc3Br)C2=O)cs1	35	-0.8	
Cc1ccc(NC(=O)NC2CC3OCCCC23)cc1OCC(F)F (configuration not stated)	6	-0.62	
Cc1c(NC2CCN(CCN3CCOCC3)CC2)cccc1N(C)C	-19	2.17	
CNC(=O)[C@@H]1CCCN1C(=O)c1cccs1	-2	0.29	
O=C(CCN1CCCC1)Nc1ccc2c(c1)OCO2			-1% and -10%
O=C(NCc1ccnc(OC2CCC2)c1)[C@H](O)c1ccccc1	1	-0.13	
Cc1cccc(C(N)=O)c1NCc1cc(C(F)(F)F)nn1C	-6	0.94	
Cc1ccccc1CCC(=O)NC1(c2ncccn2)CCOCC1	-1	0.16	
CO[C@@H]1C[C@@H](CO)N(C(=O)c2[nH]ccc2C)C1	0	0.06	
CN1CCN(C(=N)NC(=O)c2ccccc2)CC1	-6	0.86	
Cc1nn(C)c(C)c1CCC(=O)NCCN1Cc2ccccc2O[C@H](c2ccsc2)C1	10	-1.26	
O=C(NC1C2CCc3ccccc3C21)N1CCC(C(F)(F)F)C(CO)C1 (configuration not stated)	8	-1.65	
Cc1ccc(-c2nc(N3C(=O)C4CCCCC4C3=O)sc2C)cc1 (configuration not stated)	9	-1.43	
OCc1cc2n(n1)CCN(c1nc3ccccc3o1)C2	3	-0.34	

Compound	% Inhibition [%]	Z score	% Inhibition (2 µM)
Cc1cccc(-c2noc(Cn3nnc4ccccc4c3=O)n2)c1	-6	0.77	
CN(C1CCCCC1O)S(C)(=O)=O (configuration not stated)	-10	1.18	
CCN1CCN(C(=O)[C@@]2(CCO)CCN(c3ncccn3)C2)CC1	-8	1.47	
CC(C)c1cc(C(=O)Nc2n[nH]c([C@@H]3CCCO3)n2)n(-c2ccccc2)n1	-17	2.63	
Cc1noc(CNc2cc(C(=O)N3CCCCC3)ccc2Cl)n1	-3	0.44	
O=C(c1nc2ccccc2s1)N1CCC(c2cccs2)CC1	-15	2.19	
Cn1c2ccccc2n2cc(-c3ccc4c(c3)OCO4)nc12	-17	1.52	
CC(C)C[C@H]1CCCN(CC(=O)N2CC(=O)Nc3ccccc32)C1	-1	0.19	
Cc1ccc2c(c1)C(=O)N(CCC(=O)NCCOc1ccccc1)C2=O	-1	0.15	
CCN(Cc1cnn(CC)c1)Cc1cccc2cnccc12	-14	1.88	
CC(c1ccccc1)N1C(=O)C(CCC(=O)NCc2ccccc2)N=C1O (configuration not stated)	-11	2.01	
Cc1sc2ncnc(N[C@@H](C)c3cscn3)c2c1C	-5	0.83	
COc1cc(OC)cc([C@@H](CC(=O)N2CCN(c3ccccc3C)CC2)c2cn(Cc3ccccc3)c3ccccc23)c1	-5	0.74	
O=c1cc(C2CC2)ncn1CC1CCN(Cc2cc(F)ccc2F)CC1	19	-3.07	
Cc1noc(C)c1C(C)(C)C(=O)N[C@@H](C)C(=O)N1CCS(=O)(=O)CC1	3	-0.54	
CCOC(=O)[C@@H]1CCCN(C(=O)c2nnc(-c3ccc(F)cn3)o2)C1	1	-0.11	
N#Cc1ccc(N2CCC[C@H](S(=O)(=O)Nc3ccccc3)C2)nn1	-16	1.48	
Cc1nc(C)c(C(=O)NC[C@@H](CO)Cc2cccs2)s1	-1	0.15	
O=C(Cn1cnc2ccccc21)N1CCC[C@H](Nc2ccc3c(c2)OCCO3)C1	-8	0.75	
C[C@@H](CN1CCOCC1)N(C)S(=O)(=O)c1cccc2cccnc12	3	-0.42	
C[C@@H]1Oc2ccc(NC(=O)c3cccs3)cc2CN(CCc2ccc(F)cc2)C1=O	2	-0.23	

Compound	% Inhibition [%]	Z score	% Inhibition (2 µM)
O=C([C@@H]1COc2ccc(Br)cc21)N(CC1CC1)c1cccnc1	1	-0.08	
Cc1cc(F)ccc1NC(=O)C(=O)NCc1nc(C2CC2)no1	-3	0.65	
Fc1cccc(F)c1[C@H]1CCN(Cc2ncccn2)C1	-1	0.11	
O=C(Nc1ccccc1CN1CCc2ccccc21)NC1CCC(O)CC1 (configuration not stated)	35	-5.07	
COc1ccc(CC(=O)N2CCC(=C3CCC3)CC2)cc1OC	-11	1.72	
Cc1ccc2ncc(C(=O)N(CC(F)(F)F)C3CCC3)c(=O)n2c1	0	0.06	
CCn1cc([C@H]2OCC[C@@H]2NC(=O)c2nccc3occc23)cn1	-3	0.4	
COCCn1ncc(N2CC[C@H](C(=O)NCC3CCN(Cc4cccc(C)c4)CC3)C2)cc1=O	-8	1.6	
CCCC[C@H]1CN(c2cccc(-c3ccccc3)c2)C(=O)CN1C(=O)CNC(N)=O	3	-0.44	
C#CCNC(=O)[C@H](C)Oc1cc(Br)cc(F)c1F	2	-0.25	
CC(=O)N1CCN(c2nc(C)nc3c2cnn3-c2cccc(C)c2)CC1	1	-0.18	
Cc1ccc(NC(=O)N2CCN(C3=Nc4ccc(C(F)(F)F)cc4Oc4ccccc43)C[C@@H]2C)cc1	1	-0.07	
Cn1c(C(F)(F)F)nn(CC(=O)Nc2cccc(Cl)c2Cl)c1=O	-10	1.2	
COc1cccc(C(=O)N2CCc3ncncc3C2)c1OC	-9	1.65	
Cc1c(-c2noc(C(=O)N3CCCCCC3)n2)oc2ccccc12	-17	2.05	
O=C(NCCN1CCCC[C@@H]1CO)c1cn(Cc2ccc(Cl)cc2)nn1	11	-1.43	
O=C1[C@@H]2CCCN2C(=O)N1C1CCN(Cc2ccccn2)CC1	-7	1.44	
O=C(C1CC2C=CC1C2)N1CCC(c2nc3ccccc3s2)CC1 (configuration not stated)	-15	2.05	
COC[C@H]1CCCN1C(=O)C[C@@H]1CCN2C[C@@H]1CCCOc1ccc(N(C)CCc3ccccn3)cc1CNCC2=O	14	-1.63	
CCc1nc(CCN[C@H]2CCN(CC(F)(F)F)C2)sc1C	-5	0.7	
CC(NC1CCS(=O)(=O)C1)c1cccc(OCc2ccccc2)c1 (configuration not stated)	2	-0.39	
